For 26 compounds, cytotoxicity call and growth inhibition call results are on record in the antibiotic and cytotoxicity screens of Wong et al. (2023).

The structures appear in SMILES notation. The list shows a part of the results.

One experiment has as its system HSkMC. As to the kind of experiment: cytotoxicity call (relative viability < 0.9). To be noted: 10 µM.
A further experiment concerns HepG2. As to the kind of experiment: cytotoxicity call (relative viability < 0.9). As to conditions: 10 µM.
Another experiment concerns S. aureus RN4220. Nature of the experiment: growth inhibition call (relative growth <= 0.2). To be noted: 50 µM.

For the compound `CN(C)CCCCCCNC(=O)[C@@H]1C[C@@H]2C(=O)NCC(=O)N2[C@@H]1c1cccc(OCCO)c1`, the cytotoxicity call in the experiment on HSkMC and with HepG2 was “inactive” throughout. Further, in the experiment with S. aureus RN4220, the growth inhibition call is “inactive”.

Take `CC(C)NC(=O)N(C)C[C@H]1OCCCC[C@H](C)Oc2ccc(NC(=O)Nc3ccc(C(F)(F)F)cc3)cc2C(=O)N([C@@H](C)CO)C[C@H]1C`: the cytotoxicity call in the experiment with HSkMC and in the experiment on HepG2 was “inactive” each time. The growth inhibition call in the experiment with S. aureus RN4220 was “inactive”.

On to `COc1ccc(S(=O)(=O)Nc2ccc3c(c2)C(=O)N([C@@H](C)CO)C[C@H](C)[C@H](CN(C)S(=O)(=O)c2c(C)noc2C)O3)cc1`, for which the cytotoxicity call in the experiment on HSkMC and in the experiment on HepG2 was “inactive” in each case. Besides, the growth inhibition call in the experiment with S. aureus RN4220 was “inactive”.

`C[C@@H]1CN([C@@H](C)CO)C(=O)c2cc(NC(=O)Nc3ccc(C(F)(F)F)cc3)ccc2O[C@H]1CN(C)Cc1ccc(Cl)c(Cl)c1`: the cytotoxicity call in the experiment on HSkMC and with HepG2 was “inactive” in each case. In addition, the growth inhibition call in the experiment on S. aureus RN4220 is “inactive”.

For `C[C@@H]1CN([C@H](C)CO)C(=O)c2cccc(NC(=O)c3cnccn3)c2O[C@H]1CN(C)C(=O)Nc1ccc(F)cc1`, the cytotoxicity call in the experiment on HSkMC and in the experiment with HepG2 was “inactive” throughout. Besides, the growth inhibition call in the experiment on S. aureus RN4220 is “inactive”.

`C[C@H](CO)N1C[C@H](C)[C@@H](CN(C)Cc2ccc(Cl)c(Cl)c2)Oc2ccc(NC(=O)Nc3ccc(F)cc3)cc2C1=O`: the cytotoxicity call in the experiment with HSkMC and in the experiment with HepG2 was “inactive” throughout. Besides, the growth inhibition call with S. aureus RN4220 was “inactive”.

On to `C[C@H]1CN([C@@H](C)CO)C(=O)Cc2cc(NC(=O)Cc3cn(C)c4ccccc34)ccc2O[C@H]1CN(C)Cc1ccc(Oc2ccccc2)cc1`, for which the cytotoxicity call with HSkMC and with HepG2 was “active” throughout. Moreover, the growth inhibition call in the experiment with S. aureus RN4220 is “inactive”.

Consider `COc1ccc(S(=O)(=O)Nc2ccc3c(c2)C(=O)N([C@H](C)CO)C[C@@H](C)[C@H](CN(C)C(=O)Nc2c(C)noc2C)OCCCC[C@@H](C)O3)cc1`, for which the cytotoxicity call with HSkMC and in the experiment with HepG2 was “inactive” in each case. Moreover, the growth inhibition call with S. aureus RN4220 was “inactive”.

Take `CCS(=O)(=O)NCC[C@H]1CC[C@H](NC(=O)Cc2ccccn2)[C@H](CO)O1`: the cytotoxicity call in the experiment on HSkMC and in the experiment on HepG2 was “inactive” each time. Moreover, in the experiment with S. aureus RN4220, the growth inhibition call is “inactive”.

As for `CCN1[C@@H]2c3ccc(-c4ccc(C(=O)N(C)C)cc4)c(=O)n3C[C@@H]2[C@@H](CO)[C@@H]1C(=O)NCCOC`, the cytotoxicity call in the experiment with HSkMC and in the experiment on HepG2 was “inactive” throughout. Further, the growth inhibition call in the experiment with S. aureus RN4220 is “inactive”.

For the compound `COc1ccc(NC(=O)N(C)C[C@H]2OCc3ccccc3-c3c(n(C)c4ccccc34)C(=O)N([C@@H](C)CO)C[C@@H]2C)c(OC)c1`, the cytotoxicity call with HSkMC and with HepG2 was “inactive” throughout. Also, the growth inhibition call with S. aureus RN4220 is “inactive”.

As to `Cc1noc(C)c1NC(=O)Nc1ccc2c(c1)C(=O)N([C@H](C)CO)C[C@H](C)[C@H](CN(C)S(=O)(=O)c1cccs1)OCCCC[C@@H](C)O2`, the cytotoxicity call with HSkMC and with HepG2 was “inactive” each time. In the experiment on S. aureus RN4220, the growth inhibition call is “inactive”.

For the compound `CC(C)NC(=O)N(C)C[C@@H]1Oc2ccc(NC(=O)NC3CCCCC3)cc2CC(=O)N([C@@H](C)CO)C[C@H]1C`, the cytotoxicity call in the experiment on HSkMC and in the experiment with HepG2 was “inactive” throughout. Also, the growth inhibition call in the experiment on S. aureus RN4220 is “inactive”.

As for `NC(=O)N[C@H]1NC(=O)NC1=O`, the cytotoxicity call with HSkMC and with HepG2 was “inactive” throughout. For the same compound, the growth inhibition call with S. aureus RN4220 is “inactive”.

As to `C[C@@H]1CN([C@H](C)CO)C(=O)c2cc(NC(=O)Nc3ccc(C(F)(F)F)cc3)ccc2O[C@@H]1CN(C)CC1CCCCC1`, the cytotoxicity call in the experiment on HSkMC and in the experiment on HepG2 was “active” throughout. Further, in the experiment on S. aureus RN4220, the growth inhibition call is “inactive”.

Regarding `C[C@H](CO)N1C[C@H](C)[C@@H](CN(C)Cc2ccc(C(F)(F)F)cc2)Oc2ccc(NC(=O)Cc3cn(C)c4ccccc34)cc2CC1=O`, the cytotoxicity call in the experiment with HSkMC and with HepG2 was “inactive” each time. The growth inhibition call in the experiment on S. aureus RN4220 was “inactive”.

Turning to `CC(C)C#Cc1ccc2c(c1)O[C@H](CN(C)C(=O)c1cnccn1)[C@H](C)CN([C@H](C)CO)S2(=O)=O`, the cytotoxicity call in the experiment on HSkMC and with HepG2 was “inactive” each time. In the experiment on S. aureus RN4220, the growth inhibition call was “inactive”.

As for `COc1ccc(S(=O)(=O)Nc2ccc3c(c2)C(=O)N([C@H](C)CO)C[C@@H](C)[C@H](CN(C)C(=O)Nc2ccccc2)OCCCC[C@@H](C)O3)cc1`, the cytotoxicity call in the experiment with HSkMC and in the experiment on HepG2 was “inactive” each time. Besides, the growth inhibition call in the experiment on S. aureus RN4220 was “inactive”.

Take `C[C@@H]1CN([C@@H](C)CO)C(=O)c2cccc(NC(=O)Nc3cccc4ccccc34)c2O[C@H]1CN(C)C(=O)Nc1cccc2ccccc12`: the cytotoxicity call in the experiment with HSkMC and in the experiment on HepG2 was “inactive” each time. For the same compound, the growth inhibition call in the experiment on S. aureus RN4220 was “inactive”.

On to `O=C(NCCCO)C(=O)NC[C@H]1COc2ccccc2O1`, for which the cytotoxicity call with HSkMC and with HepG2 was “inactive” each time. Moreover, the growth inhibition call in the experiment on S. aureus RN4220 was “inactive”.

For the compound `CCCNC(=O)Nc1ccc2c(c1)OC[C@@H](C)N(Cc1ccc(-c3ccccn3)cc1)C[C@@H](C)[C@H](OC)CN(C)C2=O`, the cytotoxicity call with HSkMC and in the experiment with HepG2 was “inactive” each time. Further, in the experiment with S. aureus RN4220, the growth inhibition call was “inactive”.

As to `C[C@H]1CN([C@@H](C)CO)C(=O)Cc2cc(N(C)C)ccc2O[C@@H]1CN(C)C(=O)Nc1ccc2c(c1)OCO2`, the cytotoxicity call with HSkMC and in the experiment with HepG2 was “inactive” each time. Also, the growth inhibition call with S. aureus RN4220 is “inactive”.

Regarding `C=C(C)[C@@H]1CC[C@]2(COC(C)=O)CC[C@]3(C)[C@H](CC[C@@H]4[C@@]5(C)CC[C@H](OC(C)=O)C(C)(C)[C@@H]5CC[C@]43C)[C@@H]12`, the cytotoxicity call in the experiment with HSkMC and in the experiment with HepG2 was “inactive” each time. In the experiment with S. aureus RN4220, the growth inhibition call is “inactive”.

`Cc1ccc(-c2cnc3c(c2)C(=O)N([C@H](C)CO)C[C@H](C)[C@@H](CN(C)C(=O)Cc2ccncc2)O3)cc1`: the cytotoxicity call in the experiment on HSkMC (human skeletal muscle cells) and in the experiment with HepG2 was “inactive” in each case. Besides, in the experiment on S. aureus RN4220, the growth inhibition call was “inactive”.

On to `CCCN(C)C[C@@H]1OCCCC[C@@H](C)Oc2ccc(NC(=O)C3CCCCC3)cc2C(=O)N([C@H](C)CO)C[C@@H]1C`, for which the cytotoxicity call in the experiment with HSkMC and in the experiment on HepG2 was “inactive” in each case. Further, in the experiment with S. aureus RN4220, the growth inhibition call is “inactive”.

As for `Cc1ccc(S(=O)(=O)N(C)C[C@@H]2OCCCC[C@H](C)Oc3ccc(NC(=O)C4CCCCC4)cc3C(=O)N([C@H](C)CO)C[C@H]2C)cc1`, the cytotoxicity call in the experiment with HSkMC and with HepG2 was “inactive” throughout. In the experiment with S. aureus RN4220, the growth inhibition call is “inactive”.
